# In the antibiotic and cytotoxicity screens of Wong et al. (2023):
# This is one part of the list.
# Experiments:
# [1] = test system: HSkMC (human skeletal muscle cells); assay: cytotoxicity call (relative viability < 0.9); conditions: 10 µM
# [2] = test system: HepG2; assay: cytotoxicity call (relative viability < 0.9); conditions: 10 µM
# [3] = test system: S. aureus RN4220; assay: growth inhibition call (relative growth <= 0.2); conditions: 50 µM
Structure (SMILES),cytotoxicity call [1],cytotoxicity call [2],growth inhibition call [3]
CCCNC(=O)N1C[C@H](O)COC[C@@H]2O[C@H](CC(=O)NCc3ccncn3)CC[C@H]21,inactive,inactive,inactive
Cc1noc(C)c1NC(=O)N(C)C[C@@H]1OCCCC[C@@H](C)Oc2ccc(NC(=O)C3CCCCC3)cc2C(=O)N([C@H](C)CO)C[C@@H]1C,inactive,inactive,inactive
O=C(C[C@@H]1CC[C@@H]2[C@H](COC[C@@H](O)CN2S(=O)(=O)c2ccccc2F)O1)NCc1ccccc1F,inactive,inactive,inactive
C[C@H](CO)N1C[C@H](C)[C@@H](CN(C)C(=O)CN(C)C)Oc2ncc(C#CC(C)(C)O)cc2C1=O,inactive,inactive,inactive
COc1ccccc1S(=O)(=O)N[C@@H]1C=C[C@H](CC(=O)N2CCOCC2)O[C@H]1CO,inactive,inactive,inactive
C[C@@H]1CN([C@@H](C)CO)C(=O)c2cc(NC(=O)Cc3ccccc3)ccc2O[C@@H](C)CCCCO[C@@H]1CN(C)C(=O)Nc1ccccc1,inactive,inactive,inactive
C[C@@H]1CCCCO[C@H](CN(C)C(=O)CCC(F)(F)F)[C@@H](C)CN([C@H](C)CO)C(=O)c2cc(NS(=O)(=O)c3ccc(F)cc3)ccc2O1,inactive,inactive,inactive
CC(C)CC#Cc1ccc2c(c1)O[C@@H](CN(C)C(=O)NC1CCCC1)[C@H](C)CN([C@H](C)CO)S2(=O)=O,inactive,inactive,inactive
Cc1noc(C)c1NC(=O)Nc1ccc2c(c1)C(=O)N([C@H](C)CO)C[C@@H](C)[C@@H](CN(C)S(=O)(=O)c1ccc(Cl)cc1)OCCCC[C@H](C)O2,inactive,inactive,inactive
C[C@@H]1CN([C@@H](C)CO)C(=O)Cc2cc(NC(=O)Nc3ccc(F)cc3)ccc2O[C@H]1CN(C)C(=O)Nc1cccc2ccccc12,inactive,inactive,inactive
C[C@@H]1CCCCO[C@H](CN(C)C(=O)Cc2ccccc2)[C@@H](C)CN([C@@H](C)CO)C(=O)c2cc(NC(=O)Nc3ccccc3)ccc2O1,inactive,inactive,inactive
Cc1cc(C)n([C@@H](CC(=O)O)C(=O)O)n1,inactive,inactive,inactive
CC(C)C[C@@H]1NC(=O)[C@@H]2C[C@H](C(=O)NCCCCCCN(C)C)[C@H](c3cccc(OCCO)c3)N2C1=O,inactive,inactive,inactive
C[C@@H]1CCCCO[C@H](CN(C)Cc2ccncc2)[C@H](C)CN([C@H](C)CO)C(=O)c2cc(NC(=O)Nc3cccc4ccccc34)ccc2O1,inactive,inactive,inactive
C[C@@H]1CN([C@H](C)CO)C(=O)c2cc(NC(=O)Nc3ccccc3)ccc2O[C@@H](C)CCCCO[C@H]1CN(C)Cc1ccc(C(=O)O)cc1,inactive,inactive,inactive
COCC(=O)N1[C@H](C(=O)NCc2ccccc2)[C@@H](CO)[C@@H]2Cn3c(cccc3=O)[C@@H]21,inactive,inactive,inactive
O=C(C[C@@H]1C[C@H]2c3cc(NS(=O)(=O)c4ccc(F)cc4)ccc3O[C@H]2[C@H](CO)O1)NCCN1CCCCC1,inactive,inactive,inactive
C[C@@H]1CN([C@H](C)CO)C(=O)Cc2cc(NS(C)(=O)=O)ccc2O[C@@H]1CN(C)C(=O)Nc1ccccc1,inactive,inactive,inactive
C[C@H]1CCCCO[C@H](CN(C)S(=O)(=O)c2ccc(Cl)cc2)[C@@H](C)CN([C@@H](C)CO)C(=O)c2cc(NC(=O)CCC(F)(F)F)ccc2O1,inactive,active,inactive
COCCCNC(=O)[C@@]1(Cc2ccccc2N=[N+]=[N-])N=C(c2ccc(OCCCO)cc2)O[C@H]1c1ccccc1,inactive,inactive,inactive
COc1ccccc1CN1C(=O)c2ccccc2[C@@]2(Cc3ccccc3N(CCCN(C)C)C2=O)[C@@H]1c1ccc(CO)cc1,inactive,inactive,inactive
COc1ccccc1CNC(=O)C[C@H]1C[C@@H]2c3cc(NC(=O)NC4CCCC4)ccc3O[C@@H]2[C@H](CO)O1,inactive,inactive,inactive
C[C@H](CO)N1C[C@H](C)[C@H](CN(C)C(=O)NC2CCCCC2)Oc2ccc(NC(=O)c3ccncc3)cc2CC1=O,inactive,inactive,inactive
C[C@@H]1CCCCO[C@@H](CN(C)S(=O)(=O)c2ccc(Cl)cc2)[C@@H](C)CN([C@@H](C)CO)C(=O)c2cc(NS(=O)(=O)c3ccc(Cl)cc3)ccc2O1,inactive,inactive,inactive
NCCS(=O)(=O)N1CCN(c2ccc(F)cc2)CC1,inactive,inactive,inactive
C[C@@H]1CN([C@H](C)CO)C(=O)c2cc(NC(=O)CCC(F)(F)F)ccc2O[C@@H](C)CCCCO[C@H]1CN(C)C(=O)Nc1ccccc1,inactive,inactive,inactive
COc1ccc(S(=O)(=O)N(C)C[C@H]2Oc3ccc(NS(=O)(=O)c4ccc(C)cc4)cc3CC(=O)N([C@@H](C)CO)C[C@@H]2C)cc1,inactive,inactive,inactive

Structure (SMILES),cytotoxicity call [1],cytotoxicity call [2],growth inhibition call [3]
NC1(C(=O)Nc2ccc3nc(-c4ccc(F)cc4)oc3c2)CC1,inactive,inactive,inactive
C=CC[C@@H](CC(=O)NCCO)C(=O)N[C@@H](COC(=O)[C@H](CC=C)CC(=O)OC(C)(C)C)Cc1ccccc1,inactive,inactive,inactive
COc1cccc(S(=O)(=O)N[C@@H]2C=C[C@@H](CC(=O)NC3CCC3)O[C@@H]2CO)c1,inactive,inactive,inactive
C[C@H]1CN([C@@H](C)CO)C(=O)Cc2cc(NC(=O)Nc3cccc4ccccc34)ccc2O[C@@H]1CN(C)Cc1ccc(C(=O)O)cc1,inactive,inactive,inactive
COc1ccc(S(=O)(=O)Nc2ccc3c(c2)C(=O)N([C@@H](C)CO)C[C@@H](C)[C@H](CN(C)Cc2ccccc2)OCCCC[C@H](C)O3)cc1,inactive,inactive,inactive
C[C@@H]1CCCCO[C@@H](CN(C)S(=O)(=O)c2cccs2)[C@H](C)CN([C@H](C)CO)C(=O)c2cc(NS(=O)(=O)c3ccc(Cl)cc3)ccc2O1,inactive,active,inactive
C[C@@H]1CN([C@@H](C)CO)C(=O)Cc2cc(NC(=O)Nc3ccc(F)cc3)ccc2O[C@H]1CN(C)CC1CCCCC1,inactive,inactive,inactive
C[C@@H]1CN([C@@H](C)CO)C(=O)c2cc(NS(=O)(=O)c3ccc(Cl)cc3)ccc2O[C@@H](C)CCCCO[C@@H]1CN(C)C(=O)NC1CCCCC1,inactive,inactive,inactive
C[C@@H]1CN([C@H](C)CO)C(=O)Cc2cc(NC(=O)Nc3ccc(F)cc3)ccc2O[C@H]1CN(C)Cc1ccc(C(F)(F)F)cc1,active,active,inactive
Cc1noc(C)c1NC(=O)Nc1ccc2c(c1)C(=O)N([C@H](C)CO)C[C@@H](C)[C@H](CN(C)C(=O)Nc1cccc3ccccc13)O2,inactive,inactive,inactive
O=C(O)[C@H]1C2C(=O)N3CCCO[C@@H]3[C@]23C=C[C@H]1O3 (some centres not stated),inactive,inactive,inactive
Nc1ncnc(Cl)c1N,inactive,inactive,inactive
Cc1cccc2c3c(ccc12)C1=C(C(=O)C3=O)C(C)CO1 (configuration not stated),inactive,active,active
CN(C)CCO[C@@H]1CC[C@@H]2[C@H]1OCCN2S(C)(=O)=O,inactive,inactive,inactive
COc1ccc(-c2cnc3c(c2)C(=O)N([C@H](C)CO)C[C@@H](C)[C@@H](CN(C)C(=O)Cc2ccccn2)O3)cc1,inactive,inactive,inactive
COc1ccc(S(=O)(=O)Nc2cccc3c2O[C@@H](CN(C)C(=O)Nc2cccc4ccccc24)[C@@H](C)CN([C@@H](C)CO)C3=O)cc1,inactive,inactive,inactive
C[C@@H]1CN([C@@H](C)CO)C(=O)c2cccc(NC(=O)CCCCCC(=O)Nc3ccccc3N)c2O[C@H]1CN(C)C(=O)Nc1ccccc1,inactive,inactive,inactive
C[C@H](CO)N1C[C@H](C)[C@H](CN(C)C(=O)C2CCOCC2)Oc2cc(C3=CCCCC3)ccc2S1(=O)=O,inactive,inactive,inactive
CC[C@@H](N)c1nc(C)c(C)s1,inactive,inactive,inactive
C/C(=C/CC[C@@H](CO)[C@H]1CC[C@@]2(C)[C@H]3CC[C@@H]4C(C)(C)[C@H](O[C@H]5O[C@@H](CO)[C@@H](O)[C@@H](O)[C@@H]5O)C[C@H](O)[C@@]45C[C@@]35CC[C@@]12C)CO[C@H]1O[C@@H](CO)[C@@H](O)[C@@H](O)[C@@H]1O,inactive,inactive,inactive
O=c1c(-c2nn[nH]n2)coc2ccccc12,inactive,inactive,inactive
C[C@@H]1CCCCO[C@@H](CN(C)C(=O)CCCN(C)C)[C@@H](C)CN([C@H](C)CO)C(=O)c2cc(NC(=O)Nc3ccc(F)cc3)ccc2O1,inactive,inactive,inactive
C[C@@H]1CN([C@H](C)CO)C(=O)c2cc(NC(=O)Nc3cccc4ccccc34)ccc2O[C@@H]1CN(C)Cc1ccc(-c2ccccc2)cc1,inactive,active,inactive
C[C@@H]1CN([C@@H](C)CO)C(=O)c2cc(NC(=O)C3CCCCC3)ccc2O[C@@H](C)CCCCO[C@@H]1CN(C)C(=O)Nc1ccccc1,inactive,inactive,inactive
CN1CCCN(C[C@@]2(O)CCNC2)CC1,inactive,inactive,inactive
COc1ccc(NC(=O)N(C)C[C@H]2OCCCC[C@H](C)Oc3ccc(NC(=O)Nc4ccc5c(c4)OCO5)cc3C(=O)N([C@H](C)CO)C[C@@H]2C)cc1,inactive,inactive,inactive
Cc1ccc(S(=O)(=O)N(C)C[C@H]2Oc3ccc(NC(=O)Cn4cnnn4)cc3C(=O)N([C@@H](C)CO)C[C@@H]2C)cc1,inactive,inactive,inactive
